This is one part of the list.

For the experiment, the system named is T1, C. trachomatis L2/434/Bu expressing GFP (CTL2-GFP).
T1 construct: L2/434/Bu GFP intracellular growth in HeLa cells
The arrangement: species or system HeLa; C. trachomatis total inclusion area by high-content imaging, normalised to DMSO. The settings on record: total inclusion area; 28.5 h, 10 µM; inhibitor. The gist of the method:
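Bulk GFP and resorufin signals were read first. Wells were then fixed, stained with Hoechst and imaged to detect GFP inclusions and host nuclei. MICs followed the previously described calculation.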
`Cc1nc2c(c(=O)[nH]1)CN(Cc1c[nH]c3ccccc13)CC2` [CBK282327]: the “% of control remaining” value is recorded as 90.6886.

`Cn1cc(C(CC(=O)O)C(=O)O)c2ccccc21` (stereo not shown) [CBK266231]: the “% of control remaining” value was found to be 103.788.

In the case of `CC(C)NC(=O)CN(CCO)Cc1cc(Br)ccc1F` [CBK304944], the “% of control remaining” value is given as 36.67.

In the case of `COCCN(CCOC)C(=O)COc1c(Cl)cc(C(=O)O)cc1Cl` [CBK296704], the “% of control remaining” value was 50.0111.

As to `CNC(=O)c1sc2ccccc2c1C1CCN(Cc2ccc(Oc3ncccn3)cc2)C1` (stereo not shown) [CBK285881], the “% of control remaining” value is reported as 104.158.

Take `O=C(Cc1ccc(F)cc1F)N1CCC(Sc2ccc(-c3ccccc3)cc2)CC1` [CBK131950]: the “% of control remaining” value was found to be 70.6362.

As for `CCCCC1CCC(C(=O)Oc2ccccc2OCCO)CC1` (stereo not shown) [CBK081498], the “% of control remaining” value is given as 30.228.

Turning to `O=C(O)[C@H]1CN(C(=O)c2cccs2)C[C@@H]1c1ccccc1F` [CBK283819], the “% of control remaining” value stood at 96.3983.

Consider `Cn1c2c(c(=O)n(C)c1=O)[C@@H]1C(C[C@](O)(CO)[C@H]1O)C1(CCC1)N2` (stereo partly shown) [CBK303264], for which the “% of control remaining” value is 110.061.

As for `O=C(O)c1cc(NC(=O)c2cccc(F)c2)cc(NC(=O)c2cccc(F)c2)c1` [CBK262800], the “% of control remaining” value turned out to be 115.011.

Consider `COc1ccccc1OCC(=O)Nc1cc(C)nc2ccccc12` [CBK122728], for which the “% of control remaining” value is reported as 81.1148.

For the compound `CCn1nc(C)c(CN(C)Cc2nc3ccccc3[nH]2)c1C` [CBK282126], the “% of control remaining” value stood at 93.5833.

For the compound `CCOc1ccc(NC(=O)Nc2ccc(CC(=O)O)cc2)cc1` [CBK266945], the “% of control remaining” value is 107.604.

Take `CN(C)CC(=O)NCc1ccc(-c2nc(-c3ccc(C#N)cc3)cnc2N)cc1` [CBK116506]: the “% of control remaining” value is given as 93.6744.

`COc1ccc(CCN2C(=O)/C(=C\c3c(NCCO)nc4c(C)cccn4c3=O)SC2=S)cc1` [CBK265566]: the “% of control remaining” value amounted to 93.9183.

With `COCCNc1cc(-c2ccc(F)c(F)c2)ncn1` [CBK090800], the “% of control remaining” value worked out at 119.544.

Take `Cc1ncc(C(=O)NC2(c3cccc(F)c3)CCCC2)c(C)n1` [CBK283273]: the “% of control remaining” value came to 83.1458.

As for `O=S(=O)(Nc1ccc(Cl)c(Cl)c1)c1ccc(Cl)c(Cl)c1` [CBK044838], the “% of control remaining” value is listed as 64.8804.

For `Cn1nnnc1SCCNC(=O)Nc1cccc(CN2CCCCC2)c1` [CBK306872], the “% of control remaining” value was determined as 91.5093.

Take `COCCCn1c(=O)[nH]c2ncc(-c3cnc(OC)nc3)nc21` [CBK064618]: the “% of control remaining” value was determined as 69.355.

`COCCN1CCC(CNC(=O)Nc2cc(C)ccc2F)C1` (stereo not shown) [CBK304631]: the “% of control remaining” value is given as 68.5366.

On to `O=C(O)c1cccc(NCC(=O)c2ccccc2)c1` [CBK287163], for which the “% of control remaining” value is given as 110.458.

As for `CCCc1nn(CC(=O)N(CC)CC)c(=O)c2cc3ccsc3n12` [CBK284192], the “% of control remaining” value turned out to be 79.2276.

`O=C(O)c1cccc(-c2ccc(Nc3cccc(NC(=O)c4ccncc4)c3)nc2)c1` [CBK037776]: the “% of control remaining” value is 139.28.

Take `Cn1ccc(C(=O)N2CCCC3(C/C=C/Cc4ccccc4OCC(=O)NC3)C2)cc1=O` (stereo not shown) [CBK292179]: the “% of control remaining” value came out at 108.084.

`O/N=C1\CC2(CCCCC2)c2ccccc21` [CBK013318]: the “% of control remaining” value was 55.0535.

Consider `CC(C)n1cc(C(=O)N2CCCC(c3cc4ncccc4[nH]3)C2)cn1` (stereo not shown) [CBK283419], for which the “% of control remaining” value is 99.4456.

In the case of `CC(=O)Nc1ccc(CN[C@@H]2CCC[C@H]2Cc2cc(C)no2)cc1` [CBK285459], the “% of control remaining” value is given as 90.0384.

In the case of `COc1ccc(-c2csc(Nc3cccc(C(=O)O)c3)n2)cc1` [CBK286924], the “% of control remaining” value is on record as 83.7274.

In the case of `COC(=O)N1CC2(CCCCC2NCC2CCCO2)c2ccccc21` (stereo not shown) [CBK083541T], the “% of control remaining” value is reported as 95.0179.

With `O=C(O)c1ccc(Oc2ccc3c(c2)C(=O)N(c2nccs2)C3=O)cc1` [CBK261200], the “% of control remaining” value worked out at 91.5357.

On to `Cc1ccc(S(=O)(=O)Nc2ccsc2C(=O)Nc2ccc(F)cc2)cc1` [CBK004571], for which the “% of control remaining” value came to 82.4062.

As to `CC1(C(C)(O)C(F)F)OC(NC2C3CC4CC(C3)CC2C4)=NC1=O` (stereo not shown) [CBK137190], the “% of control remaining” value was 91.794.

As for `CC1CC(/N=C2/NCCS2)CC(C)(C)C1` (stereo not shown) [CBK020293], the “% of control remaining” value is reported as 120.078.

Consider `CC(=O)Nc1ccc(Nc2nc(-c3ccc(O)cc3)cn3ccnc23)cc1` [CBK037992], for which the “% of control remaining” value came to 112.87.

For `Nc1ccc(C(=O)Nc2ccc(-c3nc4ccc(NC(=O)c5ccc(N)cc5)cc4[nH]3)cc2)cc1` [CBK261147], the “% of control remaining” value is listed as 47.0725.

Consider `CN(C)C(=O)CSc1nnc(-c2cccc3ccccc23)n1-c1ccccc1` [CBK266044], for which the “% of control remaining” value worked out at 139.423.

In the case of `Cn1c(=O)c2ncn(CC(=O)Nc3ccc(N4CCN(Cc5ccccc5)CC4)cc3)c2n(C)c1=O` [CBK266875], the “% of control remaining” value turned out to be 100.607.

Take `Cc1c(Cc2ccccc2)c(N2CCN(C/C=C/c3ccccc3)CC2)n2c(nc3ccccc32)c1C#N` [CBK263112]: the “% of control remaining” value amounted to 95.2546.

For the compound `CC(=O)N1CCC(N2C[C@H](O)C[C@H]2c2nc(-c3cccc([N+](=O)[O-])c3)no2)CC1` [CBK288846], the “% of control remaining” value came to 119.21.

With `Nc1ccc(-c2cc(N)n(-c3ccc(Oc4ccccc4)c(S(=O)(=O)O)c3)n2)cc1` [CBK261563], the “% of control remaining” value turned out to be 36.1343.

In the case of `CN(Cc1nccs1)C(=O)c1cccc(OCC(=O)N2CCCCC2)c1` [CBK307478], the “% of control remaining” value turned out to be 56.5615.

On to `Nc1cc2c(cc1Cl)C(=O)NC2=O` [CBK028783], for which the “% of control remaining” value came to 100.793.

With `CCN(CC)CCN(Cc1ccc2c(c1)OCO2)C(=O)Nc1ccc2[nH]ccc2c1` [CBK159037], the “% of control remaining” value was determined as 79.1922.

For the compound `COc1ccc([C@H]2CN(Cc3ccccc3)C[C@@H]2NC(=O)CCc2ccco2)cc1` [CBK286477], the “% of control remaining” value is recorded as 89.4915.

Consider `COc1cccc(N(CC(=O)Nc2ccccc2Cl)S(=O)(=O)c2ccc(C)cc2)c1` [CBK263791], for which the “% of control remaining” value turned out to be 104.921.

Turning to `Nc1nc2cc3c(cc2[nH]1)OCO3` [CBK023191], the “% of control remaining” value came to 91.6783.

Take `O=C(COc1ccc(Br)cc1C(=O)O)Nc1ccc(F)cc1` [CBK286671]: the “% of control remaining” value came to 81.1776.

In the case of `COC(=O)c1c(NC(=O)C2CC=CCC2C(=O)O)sc2c1CCC(C)C2` (stereo not shown) [CBK262655], the “% of control remaining” value is 95.8654.

On to `c1coc(CN2CCC(c3ccc4c(c3)OCO4)CC2)c1` [CBK284001], for which the “% of control remaining” value is 52.8105.

As to `C[C@H](Oc1cncc(N2CCNCC2)n1)c1ccccc1Cl` [CBK172341G], the “% of control remaining” value amounted to 90.5195.

Regarding `Cc1nc(C)c(C(=O)N2CCCc3ccccc32)s1` [CBK200345], the “% of control remaining” value stood at 104.346.

In the case of `Cc1cnc(CNS(=O)(=O)c2ccc(F)cc2)cn1` [CBK050489], the “% of control remaining” value amounted to 52.2022.

As for `CN(C)S(=O)(=O)c1cccc(C(=O)NCc2ccco2)c1` [CBK270135], the “% of control remaining” value was found to be 125.869.

Turning to `CC(C)C(=O)N1C[C@H]2NC(=O)c3ccccc3C(=O)[C@@]2(C)C1` [CBK281658], the “% of control remaining” value is 77.7615.

In the case of `COc1ccc(CN(C)CCN(C)C)c(O)c1` [CBK261915], the “% of control remaining” value amounted to 88.8992.

With `N=C(N)SCc1ncccc1O` [CBK278318C], the “% of control remaining” value is 91.9413.

In the case of `O=C(Nc1ccc(N2CCNCC2)c2ccccc12)c1coc2c1C(=O)CCC2` [CBK038946T], the “% of control remaining” value was determined as 56.1916.

As for `Cc1ccc(Cn2nc(C)c(NC(=O)c3nc4ncccn4n3)c2C)cc1` [CBK268912], the “% of control remaining” value came to 85.5097.

As for `Brc1ccc(CN2CCN3CCCC3C2C2CCCCC2)o1` (stereo not shown) [CBK021456], the “% of control remaining” value was 43.0468.

Regarding `Nc1nonc1C(=O)NCCNCc1cccs1` [CBK267305], the “% of control remaining” value came out at 94.8762.

Turning to `COc1ccc(-c2cc(C(=O)NCc3nc4ccccc4[nH]3)cnc2-c2ccccc2)cn1` [CBK037579], the “% of control remaining” value is on record as 157.117.

Regarding `CC1CCCCC1NC(=O)CSc1nnc(CN2CCOCC2)n1C` (stereo not shown) [CBK266662], the “% of control remaining” value came out at 117.014.

Regarding `COc1cccc(COc2nccnc2/C=C/c2ccccc2)c1OC` [CBK106888], the “% of control remaining” value is recorded as 123.116.

For `CCN(CC)C(=O)C1CCCN(C(=O)c2ccc3c(c2)COC(C2CCN(C(=O)OC(C)(C)C)CC2)O3)C1` (stereo not shown) [CBK173279], the “% of control remaining” value worked out at 97.1129.

As to `O=C1N[C@@H]2CCN(S(=O)(=O)c3cccs3)[C@@H]2C(=O)N1c1ccc(F)cc1` [CBK289326], the “% of control remaining” value is 100.546.

Turning to `COc1ccc(C=Cc2cc(C(=O)O)c3ccccc3n2)cc1OC(F)F` [CBK296953], the “% of control remaining” value is listed as 98.3692.

In the case of `CCc1ccc(NC(=O)CNc2cc(C)ccc2OC)cc1` [CBK297553], the “% of control remaining” value stood at 95.4212.

Take `CCC(=O)N1CCCc2cc(C(O)CN3CCCCC3)ccc21` (stereo not shown) [CBK282130]: the “% of control remaining” value amounted to 93.7366.

`Cc1cc(C)n(C(C)CNC(=O)C(C)Cn2cccn2)n1` (stereo not shown) [CBK281639]: the “% of control remaining” value is 91.6022.

For `CCN(Cc1ccc(C#N)cc1F)C(=O)Nc1cnn(CC)c1` [CBK305702], the “% of control remaining” value is 71.9583.

On to `O=C(Nc1ncccn1)C1CCCCC1` [CBK027567], for which the “% of control remaining” value is recorded as 106.945.

As to `Fc1ccc(-c2cncc(NCCCN3CCOCC3)n2)c(F)c1` [CBK065867], the “% of control remaining” value came to 81.0745.

As to `O=[N+]([O-])c1cc(/C=N/Nc2nc(N3CCOCC3)nc(N3CCOCC3)n2)c(O)c([N+](=O)[O-])c1` [CBK261237], the “% of control remaining” value is listed as 98.0184.

On to `Nc1ncc(-c2ccc(C(=O)O)cc2)nc1-c1ccc(C(=O)N2CCOCC2)cc1` [CBK084518], for which the “% of control remaining” value is 98.2734.

For the compound `O=C(COc1ccc([N+](=O)[O-])cc1)Nc1ccc2oc(-c3ccc(Br)cc3)nc2c1` [CBK263444], the “% of control remaining” value worked out at 81.0512.

`NC(=O)C1(Cc2cccc(-c3cccs3)c2)CCN(C(=O)CCc2ccccc2)CC1` [CBK285782]: the “% of control remaining” value amounted to 119.174.

Regarding `FC(F)(F)c1cc(NCCC2CCCCN2)cc(C(F)(F)F)c1` (stereo not shown) [CBK016963], the “% of control remaining” value was found to be 110.29.

For `CC(=O)N[C@H]1C[C@@H](Cc2cc(CN3CCN(c4ccccc4)CC3)on2)C1(C)C` [CBK289241], the “% of control remaining” value is 85.0334.

Values taken from PMC12040169 (PLOS Biology, 2025).
